Tests used:
[1] = target: murine CD3 on TCR-transduced 58α-β- mouse T hybridoma cells (murine) (UniProt P22646); assay: cell-based or functional assay
[2] = target: murine TCR constant region on TCR-transduced 58α-β- mouse T hybridoma cells (murine) (UniProt A2KF29); assay: cell-based or functional assay

| Substance | transduction of 58α-β- mouse T hybridoma cells [1] | transduction of 58α-β- mouse T hybridoma cells [2] |
| --- | --- | --- |
| mouse anti-CD3 Epsilon Clone 145-2C11 Fab antibody (light chain-P2A-heavy chain, PDGFR transmembrane | 12.8% |  |
| mouse anti-TCR Beta Clone H57-597 Fab antibody (light chain-P2A-heavy chain, PDGFR transmembrane dom |  | 11% |

Reference: US20260029399A1
